The source gives no read counts; variants with many changes may rest on few reads.
B1: LINE1-mini (parent)
chain: GGCAGAGCUCAACACAGCGUGGCAAAGUGGCUGUGGCUAGACUGCC

Variants of: B1
Test: self-cleavage, relative activity (ratio to wild type); higher = more cleavage; in vitro, sequencing; the parent is a self-cleaving ribozyme

| Variant | self-cleavage |
| --- | --- |
| GGCAGAGCUAAACUCAGCGUUGCAAAGUGGCUGUGGCUAUACUGCC [C10A A14U G21U G40U] | 0.02 |
| GGCAGAGCUAAACACAGCGUGGCAUCGUGGCUGUGGCUAGACUGCC [C10A A25U A26C] | 0.11 |
| GGCAGAGCUAACCACAGCGUCCCAAAGUGGCUGUGGCUAGACUGCC [C10A A12C G21C G22C] | 0.01 |
| GGCAGAGCGCAACACAGCGUGGCAAACUGGCUGUGGUUAGACUGUC [U9G G27C C37U C45U] | 0.02 |
| GGCAGAGCUAAACGCAGCGUGGCAAAGUGGCUGUGGCUAGACUGCA [C10A A14G C46A] | 0.03 |
| GGCAGAGCUACACACAACGAGGCAAAGUGGCUGUGGCUAGCCUGCC [C10A A11C G17A U20A A41C] | 0.01 |
| GGCAGAGCUAAAAACAUCGUGGCAAAGUGGCUGUGGCUAGACUGCA [C10A C13A G17U C46A] | 0.04 |
| GGCAGAGCUAAACACAGCGUGGCAUAGUGGCUGUGGCUAGUCUUCG [C10A A25U A41U G44U C46G] | 0.01 |
| GGCAGAGCGCAACACAGCGUGGCAAAGUGCCUGUGGCUAGACUGAC [U9G G30C C45A] | 0.05 |
| GGCAGAGCUAAACACAGCGUGGCAACGUGGCUGUGUCUAGACUGAC [C10A A26C G36U C45A] | 0 |
| GGCAGAGCUAAACACUGCGUGGCAAAGUGGCUGUGGCGAGACCGCC [C10A A16U U38G U43C] | 0.02 |
| GGCAGAGCUAAACACAGCGUGGCUAAGUUGCAGUGGCUAGACUGCC [C10A A24U G29U U32A] | 0.02 |
| GGCAGAGCGCAACACAGCGUGGCAAAGUGGCAGUGUCUAGACUGCC [U9G U32A G36U] | 0.03 |
| GGCAGAGCUAAACCCAGCGUGGCAAAGUGGCUGAGGCUAGACCGCC [C10A A14C U34A U43C] | 0.02 |
| GGCAGAGCUACACAGACCGUGGCAAAGUGACUGUGGCAAGACUGCC [C10A A11C C15G G17C G30A U38A] | 0.01 |
| GGCAGAGCUAAACACCGCGUGGCAAUGUGGCUGUGGCUAGACUGCC [C10A A16C A26U] | 0.02 |
| GGCAGAGCUACACACAGCGUGGCAAAGUGGCUGUGGUUAGACUGCC [C10A A11C C37U] | 0.01 |
| GGCAGAGCUAAACACAGCGUGGCAAAGUGGCUGUGGCUAGUCUGUC [C10A A41U C45U] | 0.02 |
| GGCAGAGCUAAACCCAGCGCGGCAAAUUGGCUGUGGCUAGGCUGCC [C10A A14C U20C G27U A41G] | 0.02 |

| Variant | self-cleavage |
| --- | --- |
| GGCAGAGCUAAACACAGCGUGGCCAAGUGGCUGUGGAUAGACGGCC [C10A A24C C37A U43G] | 0 |
| GGCAGAGCUAAAAACAGCGUGGCAAAGUGGAUGUGGCUAGACUGCA [C10A C13A C31A C46A] | 0.02 |
| GGCAGAGCUAAUCACAGCGUGGCAAAGUGCCUGUGGCUAGAAUGCC [C10A A12U G30C C42A] | 0.01 |
| GGCAGAGCGCAACACAGCGCGGUAAAGUGGCUGUGGCUAGACUGCC [U9G U20C C23U] | 0.07 |
| GGCAGAGCGCAACACAGCGCGGAAAAGUGGCUGUGGCUAGACUGCC [U9G U20C C23A] | 0.03 |
| GGCAGAGCUAGGUACAGCGUGGCAAAGACGCUGUGGGAAGACUGCC [C10A A11G A12G C13U U28A G29C C37G U38A] | 0.01 |
| GGCAGAGCUAAGCACAGCGUGGCAAAGUGGCUGUGGCUUGACUGCC [C10A A12G A39U] | 0.02 |
| GGCAGAGCUAAACUCAGCGUGGCAAAGUGGCUGUGGCUAGUCUGCC [C10A A14U A41U] | 0.02 |
| GGCAGAGCGCAACACAGCGUGGCAAAGAUGCUGUGGCUAGACUGCC [U9G U28A G29U] | 0.04 |
| GGCAGAGCUAUUCACAGCCUGGCAAGAUGUCUGUGGCUAGACUGCC [C10A A11U A12U G19C A26G G27A G30U] | 0.02 |
| GGCAGAGCUAGACUCAGCGUGGCAAGGUGGCUGUGGCUAGACUGCC [C10A A11G A14U A26G] | 0.03 |
| GGCAGAGCUAAACACAGCGUGGCAAUGUGGCUGUGGCGAGACUGCC [C10A A26U U38G] | 0.14 |
| GGCAGAGCGCAACACAGCGUGGCAAAGUGGCUGCGUCUAGUGAGCC [U9G U34C G36U A41U C42G U43A] | 0.03 |
| GGCAGAGCUAAACACAGCGUGGCAAAGUGGCUGUGGCUAGUGUGCC [C10A A41U C42G] | 0 |
| GGCAGAGCUAAACACAGCGUGGCAACGUGGCUGUGGAUAGCCUGCC [C10A A26C C37A A41C] | 0.01 |
| GGCAGAGCUAAACGAAGUGUGGUAAAGUGGCUGUGGCUAGACUGCC [C10A A14G C15A C18U C23U] | 0.02 |
| GGCAGAGCGCAACACAGCGUGGCAAAGUCGCUGUGGCUAUACUGCC [U9G G29C G40U] | 0.04 |
| GGCAGAGCUAAACACAGCGUGGCUAAGUGGCUGUGGCUAGAGUGUC [C10A A24U C42G C45U] | 0 |
| GGCAGAGCUAAACACAGCGUGGCAUAGUGCCUGUGGCUAGACCGCC [C10A A25U G30C U43C] | 0.04 |

| Variant | self-cleavage |
| --- | --- |
| GGCAGAGCUAAACACGGCGUGGCAAAGUGGCUGAGCCUUGACUGAC [C10A A16G U34A G36C A39U C45A] | 0.01 |
| GGCAGAGCUAAACACGGCGUGUCAAAGUGGCUGUGGUUAGACUGCC [C10A A16G G22U C37U] | 0.02 |
| GGCAGAGCGCAACACAGCGUGACAAAAUGGCUGUGGCUAGACUGCC [U9G G22A G27A] | 0.14 |
| GGCAGAGCUAAGCACAGCGUGUCAAAAGGGCUGUGGUUAGACUGCC [C10A A12G G22U G27A U28G C37U] | 0.01 |
| GGCAGAGCUAAACGCAGCGUGGCGAAGUGGCUGUGGUUAAACUGCC [C10A A14G A24G C37U G40A] | 0.02 |
| GGCAGAGCUAAGCACAGCGUGGCAAAGUUGCUGUGGCUAGCCUGCC [C10A A12G G29U A41C] | 0.01 |
| GGCAGAGCUAAACACAGCGUGGCAACGUGGCGGUGGCUUGAAUGCC [C10A A26C U32G A39U C42A] | 0.02 |
| GGCAGAGCUACACACAGCGUGACAAAGUGGCUGUGGCUAGACUGCC [C10A A11C G22A] | 0.03 |
| GGCAGAGCUAACCAGAGCGUGGCCAAGUGGCUGUGGCUAGACUGCC [C10A A12C C15G A24C] | 0.01 |
| GGCAGAGCGCAACACAGCGUGGCAAAGGGCCUGUGGCUAGACUGCC [U9G U28G G30C] | 0.08 |
| GGCAGAGCUAAACUCAGCGUGGCAACGUGGCUGUGGUUAGACUGCC [C10A A14U A26C C37U] | 0.01 |
| GGCAGAGCGCAACACAGCGUCGCAAAGUGGCUGUAGCUAGAAUACC [U9G G21C G35A C42A G44A] | 0.06 |
| GGCAGAGCGCAACACAGCGUGGCAAAAUGCAUGUGGCUAGACUGCC [U9G G27A G30C C31A] | 0.05 |
| GGCAGAGCUAGACACAGCGUGGCAAAGUGGCUGUGGCUAGGCUGCC [C10A A11G A41G] | 0.03 |
| GGCAGAGCUAAUCACAGCGUGGCAAAGUGGCUGUAGCUAGACUGCC [C10A A12U G35A] | 0.03 |
| GGCAGAGCUAAACACAGCGUGGCAAAGUGGCUGUGGCUUGUCUGCC [C10A A39U A41U] | 0.04 |
| GGCAGAGCUACACACAGCGUGGCAAAUUGGCUGUGGCUAGACUGCC [C10A A11C G27U] | 0.01 |
| GGCAGAGCUAAACACAGCGUGGCAGAGUGACUGUGGCUAGACUGCC [C10A A25G G30A] | 0.06 |

Reference: the RNAGym collection of RNA variant scans (doi:10.7554/elife.90254)
